Laboratory results: the RNAGym collection of RNA variant scans (doi:10.1073/pnas.2313332121)
Variants at the background level are over-represented here.

B1: TPR 5TU (parent)
chain: GGAUCUUCUCGAUCUAACAAAAAAGACAAAUCUGCCACAAAGCUUGAGAGCAUCUUCGGAUGCAGAGGCGGCAGCCUUCGGUGGCGCGAUAGCGCCAACGUUCUCAACUAUGACACGCAAAACGCGUGCUCCGUUGAAUGGAGUUUAUCAUG

Variants of: B1
Assay: polymerase ribozyme fitness, log enrichment relative to wild type (log ratio); higher = more active; in vitro selection for triplet polymerase activity
In short: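 Genotype fitness is the logarithm of its enrichment divided by wild-type enrichment, using inverse-variance-weighted averages of replicates. That logarithm is base 2. Enrichment was measured by Illumina sequencing of input and output libraries from one triplicate in vitro selection round, with frozen incubation at −7 °C, on PCR-built, transcribed mutant libraries of each subunit of a heterodimeric triplet polymerase ribozyme, retaining genotypes with ≥10 input reads and ≥1 read per output.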

Variant | polymerase ribozyme fitness (log ratio)
G62C G92A | ≤ -4.2
G62C G94A G133C G141U | -3.95
G62C G143U | -3.58
G62C U77G C93A U111A U134A U139A | ≤ -4.2
G62U A66G C93A A121U U148A | ≤ -4.2
G62U A73U | -3.59
G62U A73U G84U A91U U135A G141C | ≤ -4.2
G62U A89U C116G C132G | ≤ -4.2
G62U C76A U78G G81U G143C U144C | ≤ -4.2
G62U C85U U148A | ≤ -4.2
G62U C95A | -1.1
G62U G86C C95G C132U | ≤ -4.2
G62U G88A C96A A115C G136U U145A A147U | ≤ -4.2
G62U G94A | -1.25
G62U G128A | ≤ -4.2
G62U U109C C116U C131U A147U | -1.94
C63A A66C C116G A142C | ≤ -4.2
C63A A89C C95G C114U C118U | ≤ -4.2
C63A C79U G94C A119G | ≤ -4.2
C63A C85G C95U C118U | -2.65
C63A C108G | ≤ -4.2
C63A G74A A89C | ≤ -4.2
C63A G80A C85G C96G A110G | ≤ -4.2
C63G A107G U134G U144C | ≤ -4.2

Variant | polymerase ribozyme fitness (log ratio)
C63G C72U G88U G143C | ≤ -4.2
C63G C85U A115U C116A C149U | ≤ -4.2
C63G C87U U151G | ≤ -4.2
C63G C95A A110G A122U | -3.22
C63G C96G G112U | ≤ -4.2
C63G G65C A142U A150G | ≤ -4.2
C63G G67C | ≤ -4.2
C63G G67C U135G | ≤ -4.2
C63G G70A C85A | ≤ -4.2
C63G G74U G80U G88A C99U C108U | ≤ -4.2
C63G G81U G92A G117C C118U G143U | ≤ -4.2
C63G G86C G94A A98G C99A | ≤ -4.2
C63G U90G G94A | -3.97
C63U A64G G70C G84A | ≤ -4.2
C63U A73U C103G U148A | ≤ -4.2
C63U A89G C93A | ≤ -4.2
C63U A122C | -0.464
C63U A122U | 0.751
C63U C69A G80A C85U G94C C99A | -3.32
C63U C69U G80A C108G A142C | ≤ -4.2
C63U C75A G84A C118G A120G | ≤ -4.2
C63U C75A G86A A89U A106U U134G | ≤ -4.2
C63U C79G A91G A107G | ≤ -4.2
C63U C85U C95U C149U | -1.91

Variant | polymerase ribozyme fitness (log ratio)
C63U C87A A89C C96U | ≤ -4.2
C63U C87G | -4.05
C63U C87G U146G C149A | ≤ -4.2
C63U C93A C116G A142G | -3.41
C63U C99G U151A | ≤ -4.2
C63U G68A | ≤ -4.2
C63U G68A G83C A115C U144C C149A | ≤ -4.2
C63U G68A G92A A107U A142G | ≤ -4.2
C63U G70C C95U A97U C116U | ≤ -4.2
C63U G70C G92A U101C U134G | ≤ -4.2
C63U G74A U78G C105G | ≤ -4.2
C63U G81C U82C U102G U104A C108A A150C | ≤ -4.2
C63U U102A U104G G124A | -2.05
C63U U104G | 0.272
A64C A73C U77C C96U U111G | ≤ -4.2
A64C A107C C131A | ≤ -4.2
A64C C72U U101A C105A A110U G128U G133A | ≤ -4.2
A64C C76G G124U G140C U144A | ≤ -4.2
A64C C87G C99A G141U | ≤ -4.2
A64C C87U C96U C99G | ≤ -4.2
A64C C93U U101G G140A | ≤ -4.2
A64C G67A C93U G94C U145G | ≤ -4.2
A64C G67C C108G U109G | ≤ -4.2
A64C G68A C87A | ≤ -4.2

Variant | polymerase ribozyme fitness (log ratio)
A64C G68C C87A A91G C99A A121C A122C | ≤ -4.2
A64C G71A A91U C95G G126A A138C | ≤ -4.2
A64C G80U A89C C95A C149G | ≤ -4.2
A64C G83C | ≤ -4.2
A64C G83C G141A | ≤ -4.2
A64C G84U A150C | ≤ -4.2
A64C G133C | ≤ -4.2
A64C G140A | ≤ -4.2
A64G A91C A115G U145C | -3.96
A64G A91C G133C | ≤ -4.2
A64G A91U C103U A119U G126C | ≤ -4.2
A64G C69A G83A G94A | ≤ -4.2
A64G C69U G92A A110C | ≤ -4.2
A64G C72G C87A U90G G143U C149U | ≤ -4.2
A64G C76A C103G C108U C118G | ≤ -4.2
A64G C85U A120G U146C | ≤ -4.2
A64G C85U C131U U144C G152U | ≤ -4.2
A64G C87A C116U A150G | ≤ -4.2
A64G C93G | -4.05
A64G C99A | -3.82
A64G C108G | ≤ -4.2
A64G G68C A142G G143A | ≤ -4.2
A64G G70A G84A G100C G140U | ≤ -4.2
A64G G84U U151A | ≤ -4.2

Variant | polymerase ribozyme fitness (log ratio)
A64G G86U | ≤ -4.2
A64G G86U A107G C116G G143C | ≤ -4.2
A64G G92U C116G C118A A142C C149A | ≤ -4.2
A64G U82G A91U C95U A110U U111G | ≤ -4.2
A64U A66C G70C G83A C95U | ≤ -4.2
A64U C76G C93U | ≤ -4.2
A64U C79U C103A | ≤ -4.2
A64U C85U U90A U130G | ≤ -4.2
A64U C87U G100C U135G A150G | ≤ -4.2
A64U C93U A150C | ≤ -4.2
A64U G80A U135C | ≤ -4.2
A64U G83A G86U C87A A97G | ≤ -4.2
A64U G94C A106G A107G C118U | ≤ -4.2
A64U G124A A150C | ≤ -4.2
G65A A66G A137C G141C | ≤ -4.2
G65A A89U G94U | -2.57
G65A A91G C108A | ≤ -4.2
G65A A113G | -3.91
G65A C76A C79A U109C G140U A150U | ≤ -4.2
G65A C76A G136A | ≤ -4.2
G65A C76U G83C | ≤ -4.2
G65A C85A C96G A110G | ≤ -4.2
G65A C85U A137U U139A G140A G152A | -3.3
G65A C114A | -3.39

Variant | polymerase ribozyme fitness (log ratio)
G65A G67C G92A | ≤ -4.2
G65A G68U C93U | ≤ -4.2
G65A G70A C85A A98U A137U U139G U145G | ≤ -4.2
G65A G70A U78C C93U G117U U146C | ≤ -4.2
G65A G70C A91C A107U | ≤ -4.2
G65C A89U A97G | ≤ -4.2
G65C A119U G124A A137C U151C | ≤ -4.2
G65C C75G U78C U82C G86A G94A A98U C118A A121C | ≤ -4.2
G65C C76A C79G G128U | ≤ -4.2
G65C C76G C96G U145G | ≤ -4.2
G65C C85U G126U | ≤ -4.2
G65C C87A G92U C95A C118G G143U | ≤ -4.2
G65C C87G C103G C129U U135G | ≤ -4.2
G65C C87U G124U G136A U148G | ≤ -4.2
G65C G67C G92U G140A U145A | ≤ -4.2
G65C G68A G83A A115U G140A | ≤ -4.2
G65C G68U A97G A98U | ≤ -4.2
G65C G68U A137C A150C | ≤ -4.2
G65C G84C C95U C116U G141A | ≤ -4.2
G65C G86C | ≤ -4.2
G65C U77G C85U C116U | ≤ -4.2
G65C U90G A91G | ≤ -4.2
G65C U101G U109A | ≤ -4.2
G65U A91G U104A C105U | ≤ -4.2

Variant | polymerase ribozyme fitness (log ratio)
G65U A91U C125A U134G | ≤ -4.2
G65U C72A C85A U135G | ≤ -4.2
G65U C76U G84U G92A G133U | ≤ -4.2
G65U G88U | ≤ -4.2
G65U G92C C116G | ≤ -4.2
G65U G133C G141U | ≤ -4.2
G65U U78A | -1.52
G65U U78G | ≤ -4.2
G65U U82A C93U C95G | ≤ -4.2
G65U U135C A150G | ≤ -4.2
A66C | -4.16
A66C A73C | ≤ -4.2
A66C A73G C85G U90G C96U | ≤ -4.2
A66C A91C | ≤ -4.2
A66C A107C | ≤ -4.2
A66C A122U | ≤ -4.2
A66C A137U A138U U146G | ≤ -4.2
A66C C72U | ≤ -4.2
A66C C72U G84U | ≤ -4.2
A66C C76U U82G G92C | ≤ -4.2
A66C C85A | ≤ -4.2
A66C C87A A106C G136A U146A | ≤ -4.2
A66C C87U C123U G141U | ≤ -4.2
